At least one read-out could not be matched to a standard name with certainty.
Test system: plasma free fatty acids
Assay: Effects on plasma free fatty acid levels in rats
Type: in vivo, rat
Conditions: 0.1 mg/kg, gavage, blood collected 50 min later
Description: Rats respond to a single oral dose of β3 agonists by increasing plasma free fatty acids (FFA) in response to β3 receptor stimulation on the plasma membrane of the fat cell. 5-{2-[2-(3-Chloro-phenyl)-2-hydroxy-ethylamino]-propyl}-benzo[1,3]dioxole- 2,2-dicarboxylic acid diisopropyl ester (Standard 2) was used as a standard compound. All test compounds were dosed at 0.1 mg/kg and compared to the response by Standard 2.
1). Drugs were dissolved in DMSO at 10 mg/ml.
2). Twenty μl of the DMSO-drug solution was added to 10 mL methyl cellulose:tween-80 (0.5%:0.1%) for a final concentration of 20 μg/mL.
3). Methyl cellulose:tween-80 drug suspension was given via gavage (1 mL/200 g body weight; or 0.1 mg/kg) to rats and blood was collected 50 min later.
4). Plasma was analyzed for free fatty acids using a kit supplied by Biochemical Diagnostics Inc. (Brentwood, N.Y.).
5). Drug response was calculated from the formula below. [formula]
^b Elevation of plasma free fatty acids in rats, compounds tested at
0.1 mg/kg, results expressed as % of
5{2[2(3-Chloro-phenyl)-2-hydroxy-ethylaminopropylbenzo[1,3dioxole-2,2-dic
rboxylic acid diisopropyl ester response (78% increase) at 0.1 mg/kg.
ED50 (mg/kg) values determined for selected compounds.

Row | Compound | Rat Free Fatty Acid: elevation of plasma free fatty acids, % of diisopropyl ester (Standard 2) response
1 | CC(Cc1ccc2c(c1)OC(C(=O)OCCOC(C)(C)C)(C(=O)OCCOC(C)(C)C)O2)NCC(O)c1cccc(Cl)c1 (stereo not shown) [Example 6, 5-{2-[2-(3-Chloro-phenyl)-2-hydroxy-ethylamino]-propyl}-benzo[1,3]dioxole-2,2-dicarboxylic acid bis-(2-tert-butoxy-ethyl) ester] | 14%
2 | C[C@H](Cc1ccc2c(c1)OC(C(=O)OCC1(C)COCOC1)(C(=O)OCC1(C)COCOC1)O2)NC[C@H](O)c1cccc(Cl)c1 [Example 92, 5-{(2R)-2-[(2R)-2-(3-Chloro-phenyl)-2-hydroxy-ethylamino]-propyl}-benzo[1,3]dioxole-2,2-dicarboxylic aicd bis-(5-methyl-[1,3]dioxan-5-ylmethyl) ester] | 40%
3 | C[C@H](Cc1ccc2c(c1)OC(C(=O)OC1CCCCCCC1)(C(=O)OC1CCCCCCC1)O2)NC[C@H](O)c1cccc(Cl)c1 [Example 100, 5-{(2R)-2-[(2R)-2-(3-Chloro-phenyl)-2-hydroxy-ethylamino]-propyl}-benzo[1,3]dioxole-2,2-dicarboxylic acid dicyclooctyl ester] | 10%
4 | CC(Cc1ccc2c(c1)OC(C(=O)OCOC(=O)C(C)(C)C)(C(=O)OCOC(=O)C(C)(C)C)O2)NCC(O)c1cccc(Cl)c1 (stereo not shown) [Example 49, 5-{2-[2-(3-Chloro-phenyl)-2-hydroxyethylamino]propyl}benzo[1,3] dioxole-2,2-dicarboxylic acid bis-(2,2-dimethyl-propionyloxymethyl) ester] | 50%
5 | CC(Cc1ccc2c(c1)OC(C(=O)OC1CCCC1)(C(=O)OC1CCCC1)O2)NCC(O)c1cccc(Cl)c1 (stereo not shown) [Example 11, 5-{2-[2-(3-Chloro-phenyl)-2-hydroxy-ethylamino]-propyl}-benzo[1,3]dioxole-2,2-dicarboxylic acid bis-(cyclopentyl) ester] | 118%
6 | CC(Cc1ccc2c(c1)OC(C(=O)OCC(=O)OC(C)C)(C(=O)OCC(=O)OC(C)C)O2)NCC(O)c1cccc(Cl)c1 (stereo not shown) [Example 27, 5-{2-[2-(3-Chloro-phenyl)-2-hydroxy-ethylamino]-propyl}-benzo[1,3]dioxole-2,2-dicarboxylic acid bis-isopropoxycarbonylmethyl ester] | 78%
7 | CCC(C)(C)C(=O)OCOC(=O)C1(C(=O)OCOC(=O)C(C)(C)CC)Oc2ccc(CC(C)NCC(O)c3cccc(Cl)c3)cc2O1 (stereo not shown) [Example 58, 5-{2-[2-(3-Chloro-phenyl)-2-hydroxyethylamino]propyl}benzo[1,3] dioxole-2,2-dicarboxylic acid bis-(2,2-dimethyl-butyryloxymethyl) ester] | 35%
8 | CCCCCCCCCCCCOC(=O)C1(C(=O)OCCCCCCCCCCCC)Oc2ccc(CC(C)NCC(O)c3cccc(Cl)c3)cc2O1 (stereo not shown) [Example 20, 5-{2-[2-(3-Chloro-phenyl)-2-hydroxy-ethylamino]-propyl}-benzo[1,3]dioxole-2,2-dicarboxylic acid didodecyl ester] | 48%
9 | CC(Cc1ccc2c(c1)OC(C(=O)O)(C(=O)O)O2)N1COC(c2cccc(Cl)c2)C1 (stereo not shown) [Example 66] | 40%
10 | CC(Cc1ccc2c(c1)OC(C(=O)O)(C(=O)OCCc1ccsc1)O2)NCC(O)c1cccc(Cl)c1 (stereo not shown) [Example 72, 5-{2-[2-(3-Chloro-phenyl)-2-hydroxy-ethylamino]-propyl}-benzo[1,3]dioxole-2,2-dicarboxylic acid 2-(3-Thienyl)ethyl ester] | 43%
11 | C[C@H](Cc1ccc2c(c1)OC(C(=O)OC/C=C\COCc1ccccc1)(C(=O)OC/C=C\COCc1ccccc1)O2)NC[C@H](O)c1cccc(Cl)c1 [Example 101, 5-{(2R)-2-[(2R)-2-(3-Chloro-phenyl)-2-hydroxy-ethylamino]-propyl}-benzo[1,3]dioxole-2,2-dicarboxylic acid bis-(4-benzyloxy-but-2-enyl)ester] | 38%
12 | CCCCCC(=O)OCOC(=O)C1(C(=O)OCOC(=O)CCCCC)Oc2ccc(CC(C)NCC(O)c3cccc(Cl)c3)cc2O1 (stereo not shown) [Example 48, 5-{2-[2-(3-Chloro-phenyl)-2-hydroxyethylamino]propyl}benzo[1,3] dioxole-2,2-dicarboxylic acid bis-hexanoyloxymethyl ester] | 29%
13 | CC(Cc1ccc2c(c1)OC(C(=O)OCOC(=O)c1ccccc1)(C(=O)OCOC(=O)c1ccccc1)O2)NCC(O)c1cccc(Cl)c1 (stereo not shown) [Example 56, 5-{2-[2-(3-Chloro-phenyl)-2-hydroxy-ethylamino]propyl}benzo[1,3]dioxole-2,2-dicarboxylic acid bis-benzoyloxymethyl ester] | 31%
14 | CCCCCCCCOC(=O)C1(C(=O)OCCCCCCCC)Oc2ccc(CC(C)NCC(O)c3cccc(Cl)c3)cc2O1 (stereo not shown) [Example 12, 5-{2-[2-(3-Chloro-phenyl)-2-hydroxy-ethylamino]-propyl}-benzo[1,3]dioxole-2,2-dicarboxylic acid dioctyl ester] | 48%
15 | C[C@H](Cc1ccc2c(c1)OC(C(=O)OCC=Cc1ccccc1)(C(=O)OCC=Cc1ccccc1)O2)NC[C@H](O)c1cccc(Cl)c1 (stereo partly drawn) [Example 99, 5-{(2R)-2-[(2R)-2-(3-Chloro-phenyl)-2-hydroxy-ethylamino]-propyl}-benzo[1,3]dioxole-2,2-dicarboxylic acid bis-(3-phenyl-allyl)ester] | 58%
16 | CCCCCCCCCOC(=O)C1(C(=O)OCCCCCCCCC)Oc2ccc(CC(C)NCC(O)c3cccc(Cl)c3)cc2O1 (stereo not shown) [Example 18, 5-{2-[2-(3-Chloro-phenyl)-2-hydroxy-ethylamino]-propyl}-benzo[1,3]dioxole-2,2-dicarboxylic acid dinonyl ester] | 25%
17 | CC(C)COCCOC(=O)C1(C(=O)OCCOCC(C)C)Oc2ccc(CC(C)NCC(O)c3cccc(Cl)c3)cc2O1 (stereo not shown) [Example 8, 5-{2-[2-(3-Chloro-phenyl)-2-hydroxy-ethylamino]-propyl}-benzo[1,3]dioxole-2,2-dicarboxylic acid bis-(2-isobutoxy-ethyl) ester] | 50%
18 | CC(Cc1ccc2c(c1)OC(C(=O)OCC1(C)CC1)(C(=O)OCC1(C)CC1)O2)NCC(O)c1cccc(Cl)c1 (stereo not shown) [Example 39, 5-{2-[2-(3-Chloro-phenyl)-2-hydroxy-ethylamino]-propyl}-benzo[1,3]dioxole-2,2-dicarboxylic acid bis-(1-methyl-cyclopropylmethyl) ester] | 71%
19 | CC(Cc1ccc2c(c1)OC(C(=O)OCC1CCCCC1)(C(=O)OCC1CCCCC1)O2)NCC(O)c1cccc(Cl)c1 (stereo not shown) [Example 34, 5-{2-[2-(3-Chloro-phenyl)-2-hydroxy-ethylamino]-propyl}-benzo[1,3]dioxole-2,2-dicarboxylic acid bis-cyclohexylmethyl ester] | 74%
